The record followed here is PMC4336329 (PLoS ONE, 2015).

In all, about 310,000 compounds went through this assay and about 2,200 (0.71%) showed an effect of 50% or more. Effects have a minus sign here. The list shows a part of the results.

In the assay the target is human ether-à-go-go-related gene (hERG) potassium channel (human, UniProt Q12809). Put plainly: primary screen, population patch clamp on CHO cells stably expressing hERG.
Sequence of human ether-à-go-go-related gene (hERG) potassium channel (Q12809 whole entry, looked up): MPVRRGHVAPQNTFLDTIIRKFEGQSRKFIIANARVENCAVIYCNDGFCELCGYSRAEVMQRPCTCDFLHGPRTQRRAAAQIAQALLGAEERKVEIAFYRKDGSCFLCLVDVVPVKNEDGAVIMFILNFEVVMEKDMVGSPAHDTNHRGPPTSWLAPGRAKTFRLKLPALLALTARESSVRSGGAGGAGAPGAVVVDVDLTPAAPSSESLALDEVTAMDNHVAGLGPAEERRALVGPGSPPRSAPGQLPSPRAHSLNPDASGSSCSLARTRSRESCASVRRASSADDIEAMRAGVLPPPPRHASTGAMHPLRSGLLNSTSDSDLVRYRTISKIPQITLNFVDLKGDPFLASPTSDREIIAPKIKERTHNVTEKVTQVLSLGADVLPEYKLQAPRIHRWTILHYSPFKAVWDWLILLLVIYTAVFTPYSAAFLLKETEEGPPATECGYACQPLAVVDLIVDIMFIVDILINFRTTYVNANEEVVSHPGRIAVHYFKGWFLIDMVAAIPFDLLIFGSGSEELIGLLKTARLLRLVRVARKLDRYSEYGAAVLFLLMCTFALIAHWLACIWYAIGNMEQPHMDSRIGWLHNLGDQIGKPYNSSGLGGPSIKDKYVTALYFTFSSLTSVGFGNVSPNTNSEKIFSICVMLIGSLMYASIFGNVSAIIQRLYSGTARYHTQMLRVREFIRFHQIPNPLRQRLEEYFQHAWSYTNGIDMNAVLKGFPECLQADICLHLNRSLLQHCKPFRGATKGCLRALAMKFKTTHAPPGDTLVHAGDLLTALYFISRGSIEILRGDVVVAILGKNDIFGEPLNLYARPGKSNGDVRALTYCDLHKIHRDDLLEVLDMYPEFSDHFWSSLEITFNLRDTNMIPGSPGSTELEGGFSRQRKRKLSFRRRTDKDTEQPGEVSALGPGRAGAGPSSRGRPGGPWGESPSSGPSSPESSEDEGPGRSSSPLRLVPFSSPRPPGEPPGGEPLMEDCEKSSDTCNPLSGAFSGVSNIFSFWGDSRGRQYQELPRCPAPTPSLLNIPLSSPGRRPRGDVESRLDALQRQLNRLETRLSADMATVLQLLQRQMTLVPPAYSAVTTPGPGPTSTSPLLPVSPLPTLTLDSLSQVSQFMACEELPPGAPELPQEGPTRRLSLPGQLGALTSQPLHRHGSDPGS
For the compound `COc1ccc(S(=O)(=O)N2CCCCC2)cc1NC(=O)c1ccc2ccccc2n1`, the “hERG current change (%, negative = inhibition) at 1uM” value was found to be 7.73%.
Next, `CC1(C)CC(=O)C2=C(C1)Nc1cc(Cl)ccc1S2`: 9.13%.
Regarding `Cc1ccc(Cn2ncc3c(N4CCN(c5ccc(C)cc5)CC4)ncnc32)cc1`, the “hERG current change (%, negative = inhibition) at 1uM” value came to 11.9%.
On to `CS(=O)(=O)Nc1ccc(C(=O)NCCSc2ccc(Cl)cc2)cc1`, for which the “hERG current change (%, negative = inhibition) at 1uM” value is on record as -5.83%.
As to `O=C(COc1cccc2ccccc12)NNC(=O)c1cnccn1`, the “hERG current change (%, negative = inhibition) at 1uM” value worked out at 8.78%.
Next, `Cn1c(=O)c2c(nc(N/N=C/c3ccc(OC(=O)c4ccco4)cc3)n2Cc2ccccc2Cl)n(C)c1=O`: 13.3%; `Cn1c(=O)[nH]c(=O)c2c1nc1n2CCS1`: 9.88%; `CCC(C)N1CC23C=CC(O2)C(C(=O)OCc2ccccc2)C3C1=O` (stereo not drawn): 10.9%.
In the case of `CN(CC(=O)Nc1ccccc1C(F)(F)F)C(=O)CCc1nc2ccccc2c(=O)[nH]1`, the “hERG current change (%, negative = inhibition) at 1uM” value is reported as 6.23%.
In the case of `CCOc1ccc2[nH]cc(S(=O)(=O)c3ccc(Cl)cc3)c(=O)c2c1` it was 15.4%; in that of `COc1ccc(-n2nnc3c(SCC(=O)NCc4ccco4)ncnc32)cc1`, -1.66%; in that of `CC(C)N1CCN(Cc2ccc(Oc3ncccn3)cc2)CC1CCO` (stereo not drawn), 6.59%.
With `COc1cc(/C=N/NC(=O)COc2ccccc2C)ccc1OC(=O)c1cccs1`, the “hERG current change (%, negative = inhibition) at 1uM” value is recorded as -2.96%.
In the case of `C[C@]12CCC3[C@@H](CCC4=CC(=O)CC[C@@]43CO)C1CCC2=O` (stereo partly drawn), the “hERG current change (%, negative = inhibition) at 1uM” value turned out to be 7.52%.
In the case of `CCCCNC(=S)NNC(=O)c1ccco1` it was -9.48%.
Next, `Cc1cc(C)cc(OCC(=O)Nc2ccc(-n3cnnn3)cc2)c1`: 14.4%; `CCSc1nnc(NC(=O)COc2ccccc2[N+](=O)[O-])s1`: 10.6%; `CC(C)CC(OC(=O)c1cccs1)C(=O)NCC1CCCO1` (stereo not drawn): 7.4%.
Take `CC(=O)CCC(=O)OCC(=O)Nc1ccc(SC(F)F)cc1`: the “hERG current change (%, negative = inhibition) at 1uM” value was 4.79%.
Consider `CN1C2CCC1CC(OC(=O)c1ccc([N+](=O)[O-])cc1)C2` (stereo not drawn), for which the “hERG current change (%, negative = inhibition) at 1uM” value is given as -45.5%.
Regarding `Cc1nn(C(C)C(=O)NCCCc2ccccc2)c(=O)c2nn(-c3ccccc3)c(C)c12` (stereo not drawn), the “hERG current change (%, negative = inhibition) at 1uM” value amounted to 8.73%.
With `O=c1[nH]c(O)c(N=Nc2ccc([N+](=O)[O-])cc2)c(=O)[nH]1`, the “hERG current change (%, negative = inhibition) at 1uM” value is 13.8%.
Regarding `Cc1noc(C)c1S(=O)(=O)N1Cc2ccccc2CC1C(=O)N(C)C` (stereo not drawn), the “hERG current change (%, negative = inhibition) at 1uM” value is given as -2.29%.
In the case of `CCCn1c(SCC(=O)c2ccc(CC)cc2)n[nH]c1=O` it was 13.5%.
Consider `Cc1cc(C)nc(N/N=C/c2ccc(Cl)cc2)n1`, for which the “hERG current change (%, negative = inhibition) at 1uM” value is 5.62%.
Next, `O=c1c2ccccc2nc(/C=C/c2ccc(O)cc2)n1-c1ccccc1O`: 8.68%; `O=C(Nc1cc(S(=O)(=O)N2CCCC2)ccc1Cl)C1=COCCO1`: 11.4%; `CC(O)C(O)C(O)C(O)C1NCCS1` (stereo not drawn): 8.04%.
With `O=C(CCN1C(=O)/C(=C/c2cccs2)SC1=S)Nc1ccccn1`, the “hERG current change (%, negative = inhibition) at 1uM” value is reported as 18.3%.
Next, `Cn1c(CNc2ccc(F)cc2)nc2ccccc21`: 4.33%; `CCOc1ccc(C(O)(CCC(C)C)C(CN2CCOCC2)c2ccccc2)cc1.Cl` (stereo not drawn): 14.4%.
In the case of `O=C1C2C3C=CC(C4CC34)C2C(=O)N1c1cccc2ccccc12` (stereo not drawn) it was 5.09%; in that of `Cc1cccc(NC(=O)c2ccc3c(c2)OCCO3)c1C`, 8.86%.
Next, `Cc1cc(C)c(C#N)c(Sc2ccccc2N)n1`: 15.6%.
On to `NC(=O)COC(=O)CNC(=O)c1ccc(Cl)cc1`, for which the “hERG current change (%, negative = inhibition) at 1uM” value is on record as 16.9%.
Turning to `O=C1OCCN1C(=O)[C@H]1[C@H](c2ccc(Cl)cc2)C(c2cccc(Cl)c2)=NN1c1ccccc1`, the “hERG current change (%, negative = inhibition) at 1uM” value turned out to be 11.8%.
Next, `Cc1nc(C)c(C(=O)Nc2ccccc2-c2ccccc2)o1`: -6.21%; `CCN(CC)c1ccc(N=Cc2c(O)n(-c3ccccc3)c(=O)[nH]c2=O)cc1`: -9.51%; `COC(=O)C1=C[C@@H](C(=O)OC)C2C3=C(C(=O)C24CCCCC4)[C@H](C)n2c(=O)n(-c4ccccc4)c(=O)n2[C@@H]3C1` (stereo partly drawn): 6.19%.
In the case of `COc1ccc(C2=NN(CCC(=O)NC3CCC(C)CC3)C(=O)CC2)cc1` (stereo not drawn) it was 16.8%.
In the case of `CCCNC(=O)COc1ncnc2sc(C)c(C)c12`, the “hERG current change (%, negative = inhibition) at 1uM” value amounted to 12.6%.
`CCNC(=O)NC(=O)C(C)Oc1ccc(Br)cc1Br` (stereo not drawn): the “hERG current change (%, negative = inhibition) at 1uM” value is given as 7.63%.
For the compound `CCCC(C)C(=O)OCC(=O)Nc1c(Br)cc(C)cc1Br` (stereo not drawn), the “hERG current change (%, negative = inhibition) at 1uM” value is reported as 9.86%.
With `CCN(CC)C(=O)c1[nH]cnc1C(=O)NCCCCCNC(=O)OC(C)(C)C`, the “hERG current change (%, negative = inhibition) at 1uM” value amounted to 10.6%.
Turning to `CCn1cc(C(=O)O)c(=O)c2cc(F)c(N3CCN(C(=S)NC(=O)c4ccc(OC)cc4)CC3)cc21`, the “hERG current change (%, negative = inhibition) at 1uM” value was determined as 14%.
Consider `Cc1ccc2nc(SC(C)C(=O)N3CCOCC3)[nH]c2c1` (stereo not drawn), for which the “hERG current change (%, negative = inhibition) at 1uM” value was 11.5%.
In the case of `CCN(C(=O)c1cc2c(=O)n3cccc(C)c3nc2s1)C1CCCCC1` it was 17.6%.
In the case of `Cc1noc(C)c1C(=O)N1CCC2(CC1)OCCO2` it was 25.3%; in that of `CC(C)CNC(C(=O)Nc1ccc([N+](=O)[O-])cc1Br)c1ccccc1.O=C(O)C(=O)O` (stereo not drawn), 5.4%; in that of `O=S(=O)(CC(O)CS(=O)(=O)c1ccc(Cl)cc1)c1ccccc1` (stereo not drawn), 11.5%.
Next, `CCC(=O)N1CCc2cc(S(=O)(=O)NC(C(=O)N3CCN(c4ccc(F)cc4)CC3)C(C)C)ccc21` (stereo not drawn): 12.3%.
With `CN(c1cccc(NC(=O)c2ccccc2N(C)S(C)(=O)=O)c1)S(C)(=O)=O`, the “hERG current change (%, negative = inhibition) at 1uM” value amounted to 13.2%.
In the case of `Cc1noc(C)c1C(=O)NC(C)c1ccc2c(c1)OCO2` (stereo not drawn) it was -6.53%; in that of `COCCN1C(=O)c2ccccc2C(C(=O)NCC2CCCO2)C1c1c[nH]c2ccccc12` (stereo not drawn), 3.73%.
In the case of `CSC1=C(C#N)C(c2cccc(Br)c2)CC(=O)N1` (stereo not drawn) it was -4.2%.
Next, `CCc1nnc(NS(=O)(=O)c2ccc(NC(=S)NC(=O)c3ccncc3)cc2)s1`: 3.94%; `CC(OC(=O)CSc1ccc([N+](=O)[O-])cc1)C(=O)NCc1ccccc1` (stereo not drawn): 21.4%; `O=C(O)c1cc(S(=O)(=O)Nc2ccccc2Cc2ccccc2)ccc1Cl`: 26.3%.
For `COc1ccc(C(C)=O)cc1COc1ccc(Cl)c(C)c1`, the “hERG current change (%, negative = inhibition) at 1uM” value came out at 11.9%.
In the case of `c1ccc(CSc2nnc3ccc(-c4ccncc4)nn23)nc1` it was 11.6%; in that of `CCc1ccc(S(=O)(=O)Nc2ccc(O)c3c(=O)cc(-c4ccccc4Cl)oc23)cc1`, 9.83%.
In the case of `O=C(COC(=O)/C=C/c1ccc(Cl)cc1Cl)NCc1ccco1` it was 8.68%; in that of `CC(=O)NC(C)C12CC3CC(CC(CC(=O)O)(C3)C1)C2` (stereo not drawn), 17.4%.
Next, `O=C(CNC(=O)C12CC3CC(CC(C3)C1)C2)N/N=C\c1ccco1`: 5.89%; `COc1cccc(-c2cc(C(=O)NCCCN3CCOCC3)no2)c1`: 5.83%.
On to `COCCNC(=S)N/N=C/c1ccc(OCc2ccc(C(=O)OC)cc2)c(OC)c1`, for which the “hERG current change (%, negative = inhibition) at 1uM” value is on record as 21.3%.
With `CCOC(=O)CSc1nc2c(sc(=S)n2-c2ccc(OCC)cc2)c(=O)[nH]1`, the “hERG current change (%, negative = inhibition) at 1uM” value came to 11.9%.
As for `CCCCNC(=S)NNC(=O)c1cc(C)on1`, the “hERG current change (%, negative = inhibition) at 1uM” value was 13%.
In the case of `O=C(CSc1nc(=O)[nH]c2c1CCCC2)Nc1ccc(F)cc1F` it was 8.05%; in that of `O=C(CCCN1C(=O)/C(=C/c2cccs2)SC1=S)Nc1ccccn1`, 24.2%; in that of `Fc1ccc(C2CCCCN2Cc2nc(CC3CC3)no2)cc1` (stereo not drawn), 6.08%.
Next, `CCC(=O)Nc1nc2cc(OC)ccc2s1`: 0.782%; `CCOC(=O)C(NC(=O)c1ccccc1)(N1CCOCC1)C(F)(F)F` (stereo not drawn): 9.8%; `CCc1ccc(NC(=O)CS(=O)CC(=O)N2CCN(c3ccccc3F)CC2)cc1` (stereo not drawn): 9.52%.
Consider `COC(=O)c1cc2c(s1)-c1cc(F)ccc1OC2`, for which the “hERG current change (%, negative = inhibition) at 1uM” value stood at 13.6%.
As to `Cc1nc(SCc2ccccc2)c(C(F)(F)F)c(=O)[nH]1`, the “hERG current change (%, negative = inhibition) at 1uM” value was determined as 10.8%.
In the case of `O=C(NCc1ccccc1)c1cccn(Cc2cccc(Cl)c2)c1=O` it was 7.25%; in that of `Cc1nc(SCC(=O)Nc2cc(C)on2)c2c3c(sc2n1)CCCC3`, 8.56%; in that of `O=C(N[C@H]1CCCCNC1=O)c1cc(COc2ccc(F)cc2F)on1`, 12.4%.
Next, `O=C(COC(=O)CNC(=O)c1cccc([N+](=O)[O-])c1)Nc1ccccc1OC(F)F`: 2.85%.
Next, `O=C(COc1ccc(F)cc1Cl)Nc1ccc(N2CCOCC2)cc1N1CCOCC1`: 6.92%.
Take `COc1ccc(OCCCC(=O)NCc2ccco2)cc1`: the “hERG current change (%, negative = inhibition) at 1uM” value is given as 4.9%.
Next, `CCc1n[nH]c2c1C(=O)CC(C)(C)C2`: 11.1%; `COc1ccccc1N1CCN(CC(=O)NCc2ccc(Cl)cc2)CC1`: 8.14%.
Next, `O=C(O)/C(=C\c1cccc(F)c1)c1ccc(S(=O)(=O)N2CCCC2)s1`: 10.6%.
Next, `O=C(NCCc1ccccc1)c1cnc2n(c1=O)CCS2`: 9.68%; `O=C(COC(=O)c1ccc2c(c1)OCCO2)NC1CCCCC1`: 14.9%.
`CC(=O)Nc1ccc(Nc2nc(C)c([N+](=O)[O-])c(Nc3ccccc3)n2)cc1`: the “hERG current change (%, negative = inhibition) at 1uM” value came out at 10.4%.
`O=C1CCCC(O)=C1C=NCc1ccccc1`: the “hERG current change (%, negative = inhibition) at 1uM” value was 8.52%.
In the case of `CCN(Cc1cc2ccccc2[nH]c1=O)S(=O)(=O)c1ccc(OC)cc1` it was 9.36%.
